# The whole screen tested about 410,000 compounds, of which about 5,000 (1.2%) were called active. The inconclusive results got no clear call from the source; some entries with a clear call stand among them for comparison. Calls come from the whole dose curve; as a rule, active = well fitted inhibition curve with a large enough effect; inconclusive = small, poorly fitted or top-dose-only effect; inactive = no such curve, though single readings can be large or run the other way. A potency beside an inconclusive call is a rough fit, not a confirmed value.
# Test: qHTS for Inhibitors of TGF-b; note: nearly all actives have a fitted effect of over 65% in size
# Conditions: HepG2 CAGA-GFP TGF-b/SMAD3 reporter, GFP fluorescence, 18 h, TGF-beta stimulated, 500 pg/mL final; series mostly up to 46.1 µM; activity, negative = inhibition: at the top concentration
# Summary of the method: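 First, reporter cells (HEPG2 CAGA-GFP) rested 2 h at 37 degrees C. Next, compounds were pinned in and TGF-beta added to 500 pg/mL final. After 18 h, GFP was imaged per cell and summed per well.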
# % is set by controls: 0 for no effect and ±100 for the full control effect; potency is the fitted concentration of half-maximal effect; tags give direction and shape of the fitted curve.
Compound,Potency,"activity, negative = inhibition"
CC1(C)CC2CC(C)(CN2C(=O)c2cc(-c3ccc(O)cc3)on2)C1 (stereo unspecified),"inconclusive: 31.6 µM [inhibitor, single point]",
CCOC(=O)CCc1c(C)nc2c(c(C)nn2-c2ccccc2)c1C,,inactive: 6.46%
CC(O)(c1ccc(F)c(F)c1)c1nc(/C=C/c2ccc(C(F)(F)F)cc2)cs1 (stereo unspecified),"inconclusive: 11.2 µM [inhibitor, partial curve, poor fit]",
COc1ccc(NC(=O)CN(C)C(=O)c2ccc(NS(=O)(=O)c3ccc4[nH]c(=O)[nH]c4c3)cc2)cc1,,inactive: 2.27%
COc1cccc(CN2CCN(CCCc3ccccc3)C(CCO)C2)c1OC (stereo unspecified),,inactive: -23.1%
C/C(=N\O)C(=O)NCC1CCNCC1,"inconclusive: 35.5 µM [inhibitor, single point]",
CCOC(=O)C1CCN(C(=O)c2cc3ccc4ccc(C)[nH]c4c3n2)CC1,"inconclusive: 15.8 µM [inhibitor, single point]",
COc1ccc(C=C(C#N)C#N)c(CSc2ccccn2)c1,"inconclusive: 35.5 µM [inhibitor, single point]",
COC(=O)c1ccc(-c2cc3onc(-c4ccccc4)c3c(=O)n2C)cc1,,inactive: 5.24%
CCOc1ccc(C(C)=O)cc1Cn1nc(C(=O)O)c2ccccc2c1=O,"inconclusive: 6.31 µM [inhibitor, partial curve]",
CC(NC1=CC(=O)c2cccnc2C1=O)C(O)c1ccccc1 (stereo unspecified),active: 5.01 µM,
COc1ccc2c(c1)CC1c3c(cc4c(c3-2)OCO4)CC[N+]1(C)[O-] (stereo unspecified),"inconclusive: 35.5 µM [inhibitor, single point]",
O=C(/C=C/c1cccs1)c1ccc(Br)cc1,"inconclusive: 15.8 µM [inhibitor, single point]",
O=C(Nc1cccc(C(F)(F)F)c1)N(Cc1ccc(Cl)cc1)CC(O)C(F)(F)F (stereo unspecified),"inconclusive: 25.1 µM [inhibitor, single point]",
COc1cc(C(=O)NC2CC(C)(C)NC(C)(C)C2)cc(OC)c1OC,,inactive: -18.8%
O=C(/C=C/c1ccc(-c2ccccc2[N+](=O)[O-])o1)c1ccc(Br)cc1,,inactive: -17%
CCOC(=O)c1c(C)[nH]c(N=Nc2ccc(C)cc2C)c1C,,inactive: -1.1%
CC1(C)Cc2cccc(OCC(=O)N3CCN(S(=O)(=O)c4ccc(F)cc4)CC3)c2O1,,inactive: -4.03%
CC1CN(C(=O)Nc2ccc(C(=O)NCCc3ccccc3Cl)cc2)c2ccccc2S1 (stereo unspecified),,inactive: -23.2%
NS(=O)(=O)c1ccc(CNC(=O)c2csc3c2CCCC3)cc1,,inactive: 1.74%
CC(C)c1cc(N2CCN(C(=O)c3ccco3)CC2)n2c(nc3ccccc32)c1C#N,,inactive: -5.61%
COc1nnc(-c2ccc(N3CCCCC3)c(NC(=O)C3CCCCC3)c2)c2ccccc12,"inconclusive: 0.794 µM [inhibitor, partial curve, poor fit]",
NCC1CC2c3ccccc3C1c1ccccc12 (stereo unspecified),,inactive: 1.37%
Cc1ccc(-n2ncc(C(=O)NCCCN3CCc4ccccc4C3)c2C2CCN(C(=O)OC(C)(C)C)CC2)cc1C,"inconclusive: 3.55 µM [inhibitor, partial curve]",

Compound,Potency,"activity, negative = inhibition"
C#Cc1cccc(Nc2nc(NC(C)C)nc3ccsc23)c1,"inconclusive: 22.4 µM [inhibitor, single point]",
CCOC(=O)c1[nH]ncc1CN1CCCC(C(=O)c2ccc(C(C)(C)C)cc2)C1 (stereo unspecified),"inconclusive: 35.5 µM [inhibitor, single point]",
COc1ccccc1C1CC(=O)Oc2c(C(C)C)ccc(C)c21 (stereo unspecified),"inconclusive: 35.5 µM [inhibitor, single point]",
Cc1ccc(C)c(NC(=S)N(Cc2ccco2)C(C)c2cccs2)c1 (stereo unspecified),,inactive: 6.93%
Cc1ccc(-c2nnc(SCC(=O)N/N=C/c3c(C)nn(-c4ccccc4)c3C)n2-c2ccc(C)cc2)cc1,"inconclusive: 10 µM [inhibitor, partial curve, poor fit]",
O=C(Nc1ccc(Cl)cc1)C1CCN(S(=O)(=O)c2ccc(Br)s2)CC1,active: 12.6 µM,
C=CCn1c(SCCC)nc2sc3c(c2c1=O)CCc1ccccc1-3,"inconclusive: 35.5 µM [inhibitor, single point]",
CC(C)(C)N1CC(C(=O)Nc2cccc(Cl)c2Cl)CC1=O (stereo unspecified),,inactive: 15.9%
O=[N+]([O-])c1ccc(Nc2ccc(F)cc2)nc1,"inconclusive: 0.112 µM [inhibitor, full curve, poor fit]",
COC(=O)c1ccc(Cn2c(C)c(C(=O)NCc3ccco3)sc2=O)o1,,inactive: 13.9%
CN(Cc1ccccc1)C(=O)C1CCN(Cc2cc3ccccc3n2Cc2ccccc2)CC1,"inconclusive: 35.5 µM [inhibitor, single point]",
O[C@H]1C[C@H](c2ccc(Cl)cc2)N(Cc2cccs2)C[C@@H]1n1cc(C2CC2)nn1,"inconclusive: 22.4 µM [inhibitor, single point]",
Cc1cc(Cl)ccc1OCC(=O)Nc1ccccc1NS(=O)(=O)c1cccs1,"inconclusive: 35.5 µM [inhibitor, single point]",
O=C(Cc1ccc(Cl)cc1)NCC(c1cccs1)S(=O)(=O)c1ccc(Cl)cc1 (stereo unspecified),"inconclusive: 15.8 µM [inhibitor, single point]",
O=C(Nc1cccc(C(=O)N2CCCCC2)c1)c1ccc(Cl)cc1,"inconclusive: 14.1 µM [inhibitor, single point]",
CN(C)c1ccc(N=C/C=C2/N(C)c3ccccc3C2(C)C)cc1,"inconclusive: 31.6 µM [inhibitor, single point]",
O=C(Nc1cccc2[nH]ncc12)c1ccc(F)cc1,"inconclusive: 6.31 µM [inhibitor, single point]",
COc1ccc(NC(=O)C2(C)CCN2Cc2ccc(OC(C)C)cc2)cc1OC (stereo unspecified),,inactive: -21.7%
CC(C)n1cc(CN2CCN(CCc3ccccc3)C(CCO)C2)cn1 (stereo unspecified),,inactive: -11.3%
CCCCCCCc1n[nH]c(=S)n1Cc1ccccc1,"inconclusive: 22.4 µM [inhibitor, single point]",
CCCCn1nc2cc(C(=O)NCC34CC5CC(CC(C5)C3)C4)ccc2c1OCC,"inconclusive: 20 µM [inhibitor, single point]",
CC(=O)c1cccc(S(=O)(=O)NC2CCSc3ccccc32)c1 (stereo unspecified),,inactive: -12.6%
Cc1ccc(S(=O)(=O)CCC(=O)OCC(=O)Nc2ncc(Cl)cc2Cl)cc1,"inconclusive: 1 µM [inhibitor, full curve]",
CN(C(=O)CSc1nc2ccc(Cl)cc2[nH]1)C1CCS(=O)(=O)C1 (stereo unspecified),,inactive: 30.9%

Compound,Potency,"activity, negative = inhibition"
c1ccc(Cn2c(CSc3nnnn3-c3ccccc3)nc3ccccc32)cc1,,inactive: -0.651%
O=C(CSc1nnc(-c2ccccn2)n1Cc1ccco1)c1ccccc1,,inactive: -9.19%
O=C(CCN1CCN(c2ccccc2)CC1)N/N=C/c1ccc([N+](=O)[O-])o1,"inconclusive: 20 µM [inhibitor, partial curve, poor fit]",
Cc1ccc(-n2c(=O)c3sccc3n(CC(=O)NC3CCCCC3)c2=O)cc1,,inactive: -1.4%
CS(=O)(=O)c1ccc(-c2nnc(NC(=O)c3ccc(S(=O)(=O)N4CCCC4)cc3)o2)cc1,"inconclusive: 0.891 µM [inhibitor, full curve, poor fit]",
COc1ccc(-c2ccc3c(c2)O/C(=C\c2ccsc2)C3=O)cn1,"inconclusive: 3.55 µM [inhibitor, single point]",
Cc1ccc(OCCCC(=O)Nc2sc3c(c2C(N)=O)CCCC3)cc1,"inconclusive: 35.5 µM [inhibitor, partial curve, poor fit]",
CCCCN(C)C(=O)Cn1ncc2c([nH]c3ccc(C)cc32)c1=O,,inactive: 1.96%
Cn1cc(-c2ccccc2C(=O)O)c(=O)c2cc(Cl)ccc21,,inactive: 9.8%
COc1cc(/C=N/N2CCN(Cc3ccc(C)cc3)CC2)cc(OC)c1O,,inactive: -19.9%
Cc1ccccc1-c1cccc([C@@H]2C[C@H]3CN(Cc4cccnc4)C(=O)[C@]34CCCN24)c1,"inconclusive: 14.1 µM [inhibitor, single point]",
CCCCS(=O)CC(O)CSc1nc(-c2ccc(OC)cc2)cc(-c2ccccc2)c1C#N (stereo unspecified),"inconclusive: 35.5 µM [inhibitor, single point]",
O=c1oc2ccccc2c(O)c1Sc1ccc(Cl)cc1,"inconclusive: 6.31 µM [inhibitor, single point]",
O=C(CSc1nnc2c(n1)[nH]c1ccc(F)cc12)N1CCOCC1,,inactive: 33.8%
CC(=O)Nc1ccc(S(=O)(=O)N(C#N)c2nc(C)cc(C)n2)cc1,"inconclusive: 31.6 µM [inhibitor, single point]",
O=C1CC(N2CCN(Cc3ccc4c(c3)OCO4)CC2)C(=O)N1CCc1ccccc1 (stereo unspecified),,inactive: 24.6%
CCCC(=O)N1CCCC1(C)C(=O)NCc1ccc(SC)cc1 (stereo unspecified),,inactive: 10.1%
Cc1cc2nnn(-c3nnc(-c4ccccc4)c4ccccc34)c2cc1C,,inactive: -10.2%
CCOC(=O)C1=C(N)Oc2cc(O)ccc2C1c1ccc([N+](=O)[O-])cc1 (stereo unspecified),"inconclusive: 35.5 µM [inhibitor, partial curve, poor fit]",
CCOC(=O)c1ccc(N2C(=O)c3n[nH]c(C)c3C2c2ccc(OC)cc2OC)cc1 (stereo unspecified),"inconclusive: 14.1 µM [inhibitor, single point]",
CCOC(=O)c1ccc(NC(=O)CCNS(=O)(=O)c2ccc3c(c2)oc(=O)n3C)cc1,"inconclusive: 35.5 µM [inhibitor, single point]",
Cc1cccc(C(=O)NN/C=C/C(=O)c2ccccc2)c1,"inconclusive: 25.1 µM [inhibitor, single point]",
COc1ccc(C(C(=O)NC(C)(C)C)N(C(=O)CNC(=O)c2cccs2)c2ccc(NC(C)=O)cc2)cc1OC (stereo unspecified),"inconclusive: 28.2 µM [inhibitor, single point]",

# From PubChem BioAssay AID588855 (National Center for Advancing Translational Sciences (NCATS), 2011)
